# Assay results from PubChem BioAssay AID540317 (National Center for Advancing Translational Sciences (NCATS), 2011).
# Hit rate of the full screen: of about 390,000 compounds, about 2,200 (0.56%) were called active. Inconclusive results, whose numbers are uncertain, are shown with a selection of clear calls. Calls follow the shape of the dose curve; as a rule, active = well fitted inhibition curve with a large enough effect; inconclusive = small, poorly fitted or top-dose-only effect; inactive = no such curve, though single readings can be large or run the other way. Where the call is inconclusive, the potency comes from a doubtful curve fit.
# Target: Chromobox protein homolog 1 (Homo sapiens) (UniProt P83916)
# Chain of UniProt P83916 (P83916 whole entry, looked up): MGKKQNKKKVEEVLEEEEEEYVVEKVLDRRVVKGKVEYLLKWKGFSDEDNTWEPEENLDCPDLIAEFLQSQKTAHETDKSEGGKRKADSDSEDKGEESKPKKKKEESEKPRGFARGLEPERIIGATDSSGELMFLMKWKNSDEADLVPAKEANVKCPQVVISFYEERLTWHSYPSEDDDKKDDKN
# Experiment: HTS for Inhibitors of HP1-beta Chromodomain Interactions with Methylated Histone Tails; also: nearly all actives have a fitted effect of over 70% in size
# Details: AlphaScreen HP1-beta / biotin-H3K9me3 peptide binding; series mostly up to 114 µM; activity change, negative = inhibition: at the top concentration
# In short: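 Compound inhibition of the preformed complex between 50 nM HP1-beta and 50 nM biotinylated H3K9me3 peptide was read by AlphaScreen. Buffer was PBS pH 7.4 with 0.01% Tween-20. Incubations ran 30 min at room temperature, with 10 ug/mL donor/acceptor beads.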
# Potency is read from the fitted curve at half-maximal effect; tags tell the direction and shape of the fitted curve.
Structure (SMILES),"activity change, negative = inhibition",Potency
COc1ccccc1/C=C/c1nc(C#N)c(N2CCN(c3ccccc3)CC2)o1,inactive: -8.6%,
Cc1ccc(C)c(S(=O)(=O)N2CCN(CC(=O)Nc3ccc4c(c3)OCCO4)CC2)c1,inactive: -7.06%,
COc1ccc(CNC(=O)CCCc2ccccc2)cc1,,"inconclusive: 39.8 µM [inhibitor, single point]"
CCN(C[C@H]1N[C@@](C)(C(=O)OC)[C@H]2C(=O)N(Cc3ccccc3)C(=O)[C@@H]12)C(=O)Nc1ccc(F)cc1,inactive: 15.5%,
NC(=O)c1ccc(-n2nnnc2SCC(=O)c2ccc(O)c(O)c2)cc1,inactive: -10.1%,
COc1ccc(C(=O)Oc2cc(C)c(CN3CCOCC3)cc2C)cc1OC,inactive: 25.4%,
O=C1S/C(=C\C=C\c2ccco2)C(=O)N1c1ccc(O)cc1,,"inconclusive: 50.1 µM [inhibitor, partial curve, poor fit]"
N#C/C(=N\Nc1ccc(Cl)c(Cl)c1)C(=O)C1CC1,,"inconclusive: 20 µM [inhibitor, full curve]"
CSc1ncccc1C(=O)OCC(=O)c1ccc(C)s1,inactive: 5.59% [at 57 µM],
CCOC(=O)c1cc(NC(=O)c2ccc(OC)cc2)c(=O)n2c1oc1ccc(Cl)cc12,inactive: 41.8%,
CN1CCC(Oc2ccccc2Sc2ccccc2)CC1,,"inconclusive: 44.7 µM [inhibitor, partial curve, poor fit]"
Cc1ccc(C(=O)NCC(=O)OC(C)C(=O)Nc2ccc(N(C)C)cc2)cc1C (stereo unspecified),,"inconclusive: 44.7 µM [inhibitor, partial curve]"
CC1=C(C(=O)OC(C)C)C(c2ccc(N(C)C)cc2)C2=C(CC(C)(C)CC2=O)N1 (stereo unspecified),,"inconclusive: 22.4 µM [inhibitor, full curve]"
CC(OC(=O)CCc1nc2ccccc2c(=O)[nH]1)C(=O)c1ccc(C(C)(C)C)cc1 (stereo unspecified),,"inconclusive: 35.5 µM [inhibitor, single point]"
CSc1ccc(CN2CCc3c([nH]c4ccccc34)C2)cc1,,"inconclusive: 56.2 µM [inhibitor, partial curve, poor fit]"
COc1ccc(NC(=O)CSc2nccn2Cc2ccco2)cc1OC,,inactive
CCN(CC)c1ccc(S(=O)(=O)Nc2cc(Cl)ccc2Cl)cc1NC(=S)NC(=O)C1CCCC1,,"inconclusive: 12.6 µM [inhibitor, full curve]"
O=C(c1ccc(Cl)c([N+](=O)[O-])c1)N1CCN(Cc2ccc3c(c2)OCO3)CC1,inactive: -3.64%,
Cc1ccc2nc(NC(=O)CSc3nccn3Cc3ccccc3)sc2c1,,"inconclusive: 20 µM [inhibitor, single point]"
Clc1ccc(-c2nc3ccccn3c2Nc2ccc3c(c2)OCCO3)s1,,"inconclusive: 22.4 µM [inhibitor, full curve]"
Cc1sc2c(c1C)C(=O)NC(c1ccccc1F)N2 (stereo unspecified),,"inconclusive: 31.6 µM [inhibitor, partial curve, poor fit]"
Nc1cc(C(=O)O)c(N)c2c1C(=O)c1ccccc1C2=O,,active: 14.1 µM
COc1ccc(NC(=O)c2sc3nc(C)c(C(=O)Nc4ccc(C)cc4C)c(-c4cccs4)c3c2N)cc1,inactive: 21.2%,

Structure (SMILES),"activity change, negative = inhibition",Potency
COc1ccc(NS(=O)(=O)c2cc(NC(=O)/C=C/c3cccs3)ccc2N2CCOCC2)cc1,,"inconclusive: 22.4 µM [inhibitor, full curve]"
Cc1cccc(CSc2nc3c(c(-c4cccs4)c2C#N)CN(C)CC3)c1,inactive: 6.81%,
CNc1ccc(/C=C/C(=O)c2ccc(C)cc2)cc1[N+](=O)[O-],,"inconclusive: 10 µM [inhibitor, full curve]"
COc1ccc(NC(=S)NC(NC(=O)CCl)C(Cl)(Cl)Cl)c([N+](=O)[O-])c1 (stereo unspecified),,"inconclusive: 25.1 µM [inhibitor, full curve]"
Cc1ccc(S(=O)(=O)NNc2ccccc2)cc1,,"inconclusive: 4.47 µM [inhibitor, full curve, poor fit]"
CN(C)[C@@H]1CCC[C@H]1OC(=O)C(c1ccccc1)c1ccccc1,,"inconclusive: 39.8 µM [inhibitor, single point]"
O=C(NCCc1csc2nc(-c3cccc(F)c3)nn12)c1ccc(Br)o1,inactive: 17.4% [at 57 µM],
COc1cc(CN2CCN(c3ccccc3C)CC2)cc([N+](=O)[O-])c1O,,"inconclusive: 56.2 µM [inhibitor, partial curve, poor fit]"
O=C(Nc1ccc(S(=O)(=O)Nc2nccs2)cc1)c1cc(-c2ccccc2)nc2ccccc12,,"inconclusive: 35.5 µM [inhibitor, full curve]"
NC(=S)N/N=C/c1ccccc1OCCSc1ccc(Cl)cc1,,"inconclusive: 31.6 µM [inhibitor, partial curve]"
Cc1ccc(-c2nc3ccccn3c2Nc2ccc3c(c2)OCO3)o1,,"inconclusive: 56.2 µM [inhibitor, partial curve, poor fit]"
O=C(Nc1cccc(S(=O)(=O)NC2=NCCC2)c1)c1c(F)cccc1Cl,inactive: 5.87%,
O=C1C(=Cc2ccco2)CCC1=Cc1ccco1,,active: 3.55 µM
Cc1ccc(C)c(-n2c(-c3csc(C)c3)n[nH]c2=S)c1,inactive: -1.19%,
Cc1cccc(-c2c3c(=O)n(C)c(=O)n(C)c3c3cnc4ccccc4n23)c1,inactive: 50.9%,
CN(C)c1oc(-c2ccccc2[N+](=O)[O-])nc1C#N,,"inconclusive: 22.4 µM [inhibitor, full curve, poor fit]"
C=CCn1c(CCNC(=O)c2cccs2)n[nH]c1=S,,"inconclusive: 100 µM [inhibitor, single point]"
O=C(CCC1N=C2c3ccccc3N=C(SCc3ccc(F)cc3)N2C1=O)NC1CCCCC1 (stereo unspecified),inactive: 40.9%,
Oc1ccc(N2CCN(c3ncnc4sc(-c5ccccc5)cc34)CC2)cc1,,"inconclusive: 31.6 µM [inhibitor, partial curve]"
O=C1c2ccccc2C(=O)c2c(O)c(O)cc(O)c21,,active: 11.2 µM
Cc1ccc(N=Nc2c(N)n(-c3ccccc3)[nH]c2=O)cc1,,"inconclusive: 15.8 µM [inhibitor, partial curve, poor fit]"
C=C(C)CN(CC)C(=O)CC1C(=O)NCCN1CC(C)(C)C (stereo unspecified),inactive: 20.4% [at 57 µM],
COc1ccccc1Nc1ccc(N)cc1,,"inconclusive: 56.2 µM [inhibitor, single point]"
